For nine compounds, IC50 results are on record in patent publication US9718818B2, “Compounds inhibiting leucine-rich repeat kinase enzyme activity” (MERCK SHARP & DOHME CORP., priority 2013, dated 2017).

SMILES strings stand for the structures.

The target in the assay is LRRK2 (G2019S mutation, GST-LRRK2 (amino acids 970-2527)) (Homo sapiens, UniProt Q5S007, G2019S). The assay can be described thus: LRRK2 Km ATP LanthaScreen Assay. The following applies: IC50 (nM), mean IC50 of several tests, fluorescein LRRKtide substrate, TR-FRET. (In general: TR-FRET usually uses a lanthanide donor and a delayed reading to cut background.)
For the compound `CC(C)Oc1cc2c(-c3cc(N4CC5CCC(C4)O5)ncn3)n[nH]c2cn1` [Example U2], the IC50 (as a rule, the concentration at which inhibition is half-maximal) is 194 nM.
In the case of `CC(C)Oc1cc2c(-c3cc(N4CCN(C)C(=O)C4)ncn3)n[nH]c2cn1` [Example U3] it was 58.6 nM.
In the case of `Cn1cc(-c2ncc3[nH]nc(-c4ccnc(N5CCOCC5)c4)c3n2)cn1` [Example U4] it was 27.7 nM; in that of `CC(C)Oc1cc2c(-c3ccnc(N4CCOCC4)c3)n[nH]c2cn1` [Example V1], 15.5 nM.
`Clc1cc2c(-c3ccnc(N4CCOCC4)c3)n[nH]c2cn1` [Example W1]: the half-maximal inhibitory concentration (IC50) amounted to 58 nM. This IC50 is about 3.7-fold higher than that of the compound before.
As for `c1cc2c(-c3ccnc(N4CCOCC4)c3)n[nH]c2cn1` [Example X1], the figure is 42 nM; as for `c1cnc2[nH]nc(-c3ccnc(N4CCOCC4)c3)c2c1` [Example X2], 220 nM.
In the case of `c1cnc2c(-c3ccnc(N4CCOCC4)c3)n[nH]c2c1` [Example X3] it was 73 nM.
In the case of `Clc1cc2c(-c3ccnc(-n4ccnc4)c3)n[nH]c2cn1` [Example Z1] it was 1080 nM.
